Experimental data from US6203824A (priority 1992, dated 2001).

Conditions: based on TLV values

SMILES: O=C=S [carbonyl sulphide]
- Relative ranking, mammalian toxicity: 1

SMILES: P [Phosphine, phosphine]
- Relative ranking, mammalian toxicity: 2

SMILES: CBr [Methyl bromide, methyl bromide]
- Relative ranking, mammalian toxicity: 3
